In publication PMC12136788:
This is one part of the list.

T1: UNK ZnF1-3 (human, UniProt Q9C0B0 31-174)
T1 sequence: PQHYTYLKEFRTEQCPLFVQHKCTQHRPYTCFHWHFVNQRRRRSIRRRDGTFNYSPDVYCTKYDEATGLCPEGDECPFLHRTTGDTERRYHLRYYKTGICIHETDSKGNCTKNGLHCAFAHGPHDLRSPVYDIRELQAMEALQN

B1: chr7:63240916:63240917:-_ENSMUSG00000047037_ENSMUST00000052204|mus_mus|motif|central (ssRNA)
RNA: GGGAGUUCUACAGUCCGACGAUCUAGCAGACAGCCCAACUUGCCCAAGAUGUUGAGCUUUUCCUUCAGAAGGUAAGAAGCGGAAAUGGACCCAAACGGUACUCCAAGGGCACCUAAGGGAGUCACCAGGACUGUAGGGACCGCCAACAGAGGAUUGAGCAUCA
B2: chr3:144353948:144353949:-_ENSMUSG00000037062_ENSMUST00000163279|mus_hu|FALSE|FALSE (ssRNA)
RNA: GGGAGUUCUACAGUCCGACGAUCACCAAACAACUCUGAAAAUAACCCAUCAAAACAUAAUAUUAAAAUCAUUUGAUUUCUGUUGGAAAACCAGGUAAACAUAGUUUAAAUGCGUUUUUGUCUAUGAAAGCAUUCAGAAAAUUCCAACAGAGGAUUGAGCAUCA
B3: chr12:48362563:48362564:+_ENSG00000134291_ENST00000256686|hu_hu|motif|central (ssRNA)
RNA: GGGAGUUCUACAGUCCGACGAUCGAUGAAGGGUGAAUCAAGCCCCACAUAGACUCUUGGUAAAAACAAUUCUAACUUUCGGAAAAAAAAAAAAGCCAACACACUUUUUUCUUUCUUUUCAAAAAGCUCCCAGGCCUUUGGGAACAACAGAGGAUUGAGCAUCA
B4: chr11:69795057:69795058:+_ENSMUSG00000018559_ENSMUST00000108593|mus_hu|FALSE|FALSE (ssRNA)
RNA: GGGAGUUCUACAGUCCGACGAUCAUAUCGAACAGUUUGGUACUGAAUUACCGUGCGGAUCUGCCUCCGCAGAAGGUAAAUGAAGAAGCUCCAGAGCUUGGCGGCGAAGGCCACGAACGUGCGCAGCCCCAGCAGACACUGCGUCAACAGAGGAUUGAGCAUCA
B5: chr4:57314706:57314707:+_ENSG00000128050_ENST00000264221|hu_mus|hu_hu_hu_mus_True|58_108 (ssRNA)
RNA: GGGAGUUCUACAGUCCGACGAUCCAGUAUUUCAAAUAUAGCUUGUGUGGCAUGACUCAUGAUGUCCACUUCAGUCUGGCCUAUAAGAAGGCCAGCAAAACAGAAUUUUGCAGCAAUGAGUUGCUCCUCAGACCACUGUGGAUCCAACAGAGGAUUGAGCAUCA
B6: chr12:16048344:16048345:+_ENSG00000023734_ENST00000419869|hu_hu|hu_hu_hu_mus_True|68_78 (ssRNA)
RNA: GGGAGUUCUACAGUCCGACGAUCAGAUCGUCCAUAAGUAAUAACCAAAAUCUCUCCCUCAGGAAUAUAUUCCAUACUGCUAACAGACAUAUUAAAAUUCAGAGAUUUCACUUCUGUCAUUGUGGCAUGAUCCCAGAGCCGAACCAACAGAGGAUUGAGCAUCA
B7: 44612319_44612584_207_CDS_ENSG00000136271_ENST00000433257|human|control|control (ssRNA)
RNA: GGGAGUUCUACAGUCCGACGAUCUCUGGCUUCUCCAUCAGCACAGCUCUCUGAGAGACUGAGUCUUCAGCAGCUGAGACAUUGGCCACUCGGACAUCCCGAGCACAGUAGGUAGCCAGCUGCUGAAUCAUGGACUGUGCUUGCCAACAGAGGAUUGAGCAUCA
B8: chr14:22137345:22137346:+_ENSMUSG00000039197_ENSMUST00000045376|mus_hu|FALSE|FALSE (ssRNA)
RNA: GGGAGUUCUACAGUCCGACGAUCAAAAAGUAUAUCAACAUAAGGCAUAACUUUCAUCAAUGAUUCCUUGUAGAACUGGCUAAUAAACGGUGCAGAUAGAUUCAAAGUGAAAAUCCUGUUGUUUUCAGAAGCAUGGUGAGCCACCAACAGAGGAUUGAGCAUCA
B9: chr11:72025555:72025556:-_ENSMUSG00000020801_ENSMUST00000021157|mus_hu|motif|central (ssRNA)
RNA: GGGAGUUCUACAGUCCGACGAUCUCGCACACUGAGCAUUCACCAGCUCCUUUCGGAAGUGUUCAUAUUGGAGCAGCUCGGACAUGUGUAAACACUGAGGGUACUUUAGAUACUUGGCAUAUUCUGGGUCUUUCCAGUAAAGCACAACAGAGGAUUGAGCAUCA
B10: chr7:63240916:63240917:-_ENSMUSG00000047037_ENSMUST00000052204|mus_hu|motif|central (ssRNA)
RNA: GGGAGUUCUACAGUCCGACGAUCUAGCAGGCACCCCAACUUGCCCAAGAUGUUGAGCUUUUCCUUCAGGAGAUAGGAAGCGGAAAUGGACCCGAACGGUACUCCAAGGGCGCCCAGGGGGGUUACCAGGACCGUGGGGACCGCCAACAGAGGAUUGAGCAUCA
B11: chr6:136509389:136509390:+_ENSMUSG00000030213_ENSMUST00000032335|mus_hu|motif|central (ssRNA)
RNA: GGGAGUUCUACAGUCCGACGAUCAAUAUUAUUAUCAGCUUUAUUUUUCUCAUCCAAUGAGUCUUUACUCUGAAUUUGCUCGGAUUUUUCAUCAGCUCCAUUUUUUUCAAGAAAAUCAUCAUCUUUAUUGCUACUUGGUUCUAUCAACAGAGGAUUGAGCAUCA
B12: chr17:62496016:62496017:-_ENSG00000108654_ENST00000581693|hu_hu|motif|central (ssRNA)
RNA: GGGAGUUCUACAGUCCGACGAUCCAGAUAACACACAAUAUAAAGAGCAAUUAUGAAAAACAGACAUUUACAUAUACUUCGGAAGUCUUAUUGGGAAUAUCCUGUUGGCAUUGGAUAACCAAUCAUAGGUGCAGCUGCAGUAGCCAACAGAGGAUUGAGCAUCA
B13: chr6:64423786:64423787:+_ENSG00000118482_ENST00000393387|hu_hu|motif|central (ssRNA)
RNA: GGGAGUUCUACAGUCCGACGAUCAACAAAUCUUUGAAUAUACAGCAAUGUAAAACUUUUAAAAAUAUUAAAUUCCGGUAACGGGGGACCGUUGGUAUGAAGAAGGGAUGAUGAGCACUGGUACAGAGCACUCUGUACCAACACCAACAGAGGAUUGAGCAUCA
B14: chr12:39752152:39752153:-_ENSG00000139116_ENST00000544797|hu_mus|motif|central (ssRNA)
RNA: GGGAGUUCUACAGUCCGACGAUCGUACUUCAGAGUGUUUAACGUCUCCAUGAAAUCCCUGUCUGAAGGGCUGACGCAUGCGGUCAUGAUGGUUUGGCUGUUACCCCCAAGGGAAUCCUGCAAGAGUCUUGUCAGCUUAGAGUCCAACAGAGGAUUGAGCAUCA
B15: chr12:121861850:121861851:+_ENSG00000170633_ENST00000361234|hu_hu|FALSE|FALSE (ssRNA)
RNA: GGGAGUUCUACAGUCCGACGAUCCAGCAACAAUGUGGAAACUUACAUUCAUCAAAUGUUAGCAUUUAAAAUAUACAUGACUAAUAAAGUGAACAUUCAGAGGAGCCACUGCUCAGCAUGUUCCAUGUCGGCCACUUGUGGACACAACAGAGGAUUGAGCAUCA
B16: chrX:76855959:76855960:-_ENSG00000085224_ENST00000373344|hu_mus|FALSE|FALSE (ssRNA)
RNA: GGGAGUUCUACAGUCCGACGAUCUGAAGCUAUAAAUUCAUCCAUACUAUCUUCAUCAAAAUAACCCUUAUUUUCUUUGCUGAUAUAGUCCAGUUGCAAACACCAAGGAUGAGUCCAGAUUCUACUUAACAUUUGGAAAUCUUGCAACAGAGGAUUGAGCAUCA
B17: chr14:90871172:90871173:+_ENSG00000198668_ENST00000553542|hu_mus|motif|central (ssRNA)
RNA: GGGAGUUCUACAGUCCGACGAUCACCAAUACAUGCAGACUUUGUGUGUGGACAGAGGGGCUUCUGACAUUCAGCUUCGCGGGAUACAAACAGAAUGAAGAAAUGAACUUUUUCUUUUUUUUUCUUUUUUUUGUAAGAGGUAAGCAACAGAGGAUUGAGCAUCA
B18: 46599869_46600981_1274_CDS_ENSG00000111371_ENST00000398637|human|control|control (ssRNA)
RNA: GGGAGUUCUACAGUCCGACGAUCCUUCAAGAGACACAGAGGGAGAAUUAUGCCAAAGGUAACUAUCACCACCAGAACGCGGCCAUCCACGUACCAGGCUGAAAAUGUCUCUUCCUUUCCCAUUAGAAACUUUAUGGCAGAGGGCAACAGAGGAUUGAGCAUCA
B19: chr13:94999761:94999762:-_ENSMUSG00000021687_ENSMUST00000022197|perfect_dup|motif|central (ssRNA)
RNA: GGGAGUUCUACAGUCCGACGAUCUUCUACAGGAAUGUCUACAGAAAAAUCCUGAUAGAAACAAGGUCCGACAGGAAAAUUGCGGGGAAGAGGUGGCCAAUUAUUUUUUCUACCAUGUUGACUGAGGUUUUGCAUUUCUCGUUCCAACAGAGGAUUGAGCAUCA
B20: chr4:42003652:42003653:+_ENSG00000014824_ENST00000513699|hu_mus|FALSE|FALSE (ssRNA)
RNA: GGGAGUUCUACAGUCCGACGAUCAAUAGAUAAAUGUGGGUGAAUGUCGGGAACCACAUAUGUAAAGCUUUCAAAUGUCAUUACAUUCUUCCAUCCCUGGCUGCGGCCGCGGGUCGCUGCCCGGCCGCCACCGAGCCUGCACAGCAACAGAGGAUUGAGCAUCA
B21: chr8:96751671:96751672:+_ENSMUSG00000032939_ENSMUST00000079961|mus_hu|FALSE|FALSE (ssRNA)
RNA: GGGAGUUCUACAGUCCGACGAUCCGUGCGUGUUAGGGUACGGGAACGCAGGCGCUCUCCCGCCUGCUGGAUCUCCUGUAAGUUCCGUUCCACAUGGGGAAGCUCUGAGAUGCCCUCAGUCUCAGCAGCAAGCUGUUCAGCUUGCAACAGAGGAUUGAGCAUCA
B22: chr14:76904430:76904431:+_ENSMUSG00000022010_ENSMUST00000022587|mus_mus|mus_mus_mus_hu_True|1_78 (ssRNA)
RNA: GGGAGUUCUACAGUCCGACGAUCUGCAGCCAAAAACACCCUCGUGGAAAAAAAGAGCAAGCUCCAGCAGCCUUGUAUAAGCUAGAUAAAAUCUUCUGGCUUUCCGCAGCCCAGGGAGAAACAGAAAACGGCAGCCCUCGAGUGCAACAGAGGAUUGAGCAUCA

The binders below were run against T1, UNK ZnF1-3 (assay: nsRBNS (natural sequence RNA bind-n-seq); RBNS binding buffer (assumed for nsRBNS): 25 mM Tris pH 7.5, 150 mM KCl, 3 mM MgCl2, 0.01% Triton X-100, 500 ug/ml BSA, 20 U/ml SUPERase-In, 4 C; UNK is unkempt and MSI1 is Musashi-1; names of the RNAs are library labels; protein concentration not given here; high values mean tight binding).

Binder	binding signal [enrichment R]
B1	1.1
B2	0.744
B3	1.66
B4	0.477
B5	0.863
B6	1.22
B7	0.34
B8	1.06
B9	0.84
B10	1.24
B11	0.383
B12	2.07
B13	2.95
B14	0.724
B15	1.24
B16	0.925
B17	1.22
B18	1.57
B19	1.75
B20	0.84
B21	0.54
B22	1.74
